Experimental data as given in article PMC7754472.
No constants are given. Whether binding was seen depends on the method and setting. For some of these results: In cells and extracts the contact can be indirect. Some entries that bind do so weakly or less than the wild type. For some of these results: Where a sequence is shown, tags or fusion partners need not be part of it.

What was measured:
[1] = target: T1, RPW8.1 fused to the Gal4 DNA-binding domain (BD) of pGBKT7 (Arabidopsis (accession Ms-0)) (UniProt Q9C5Z7); test: two-hybrid; RPW8.1 or RPW8.2 on the Gal4 BD (pGBKT7) as bait, ACO proteins and fragments on the Gal4 AD (pGADT7) as prey; growth on SD/-Ade/-His/-Leu/-Trp with X-alpha-gal (40 ug/ml) and Aureobasidin A (200 ng/ml), photographed after 3 d
T1 sequence: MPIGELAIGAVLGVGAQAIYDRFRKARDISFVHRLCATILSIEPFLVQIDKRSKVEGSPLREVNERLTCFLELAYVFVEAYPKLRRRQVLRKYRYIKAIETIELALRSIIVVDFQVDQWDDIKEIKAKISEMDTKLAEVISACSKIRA

[2] = target: T2, RPW8.2 fused to the Gal4 DNA-binding domain (BD) of pGBKT7 (Arabidopsis (accession Ms-0)) (UniProt Q9C5Z6); test: as above
T2 sequence: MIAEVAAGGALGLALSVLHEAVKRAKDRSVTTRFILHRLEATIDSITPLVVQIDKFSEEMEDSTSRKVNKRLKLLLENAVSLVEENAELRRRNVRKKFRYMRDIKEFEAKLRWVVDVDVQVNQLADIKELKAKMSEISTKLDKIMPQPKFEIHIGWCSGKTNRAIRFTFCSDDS

[3] = target: T3, RPW8.1-YC (Arabidopsis (accession Ms-0)) (UniProt Q9C5Z7); test: split reporter; BiFC: YN- and YC-tagged proteins coexpressed in N. benthamiana leaves; YFP fluorescence by confocal microscopy 2 d after infiltration
T3 sequence: T1 sequence

[4] = target: T4, YN-RPW8.1 (Arabidopsis (accession Ms-0)) (UniProt Q9C5Z7); test: as above
T4 sequence: T1 sequence

ACO4-Flag (Arabidopsis) = ACO4-Flag (Arabidopsis) (UniProt Q06588); test: co-IP; transient coexpression in N. benthamiana by agroinfiltration, leaves collected at 36 hpi; IP buffer with 25 mM Tris-HCl pH 7.5, 100 mM NaCl, 1 mM EDTA, 10 mM DTT, 10% glycerol, 0.5% triton; alpha-Flag agarose 2 h at 4 C; immunoblot with alpha-HA or alpha-Flag
[5] = target: T5, ACO4_(38-175)-Flag (Arabidopsis) (UniProt Q06588); test: as above
T5 sequence: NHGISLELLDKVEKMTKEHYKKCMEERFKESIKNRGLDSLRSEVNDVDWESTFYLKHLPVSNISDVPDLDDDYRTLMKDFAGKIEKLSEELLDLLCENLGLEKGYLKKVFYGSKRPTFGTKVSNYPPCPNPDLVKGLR

[6] = target: RPW8.1-HA (Arabidopsis (accession Ms-0)) (UniProt Q9C5Z7); test: as above

B1: ACO4_(38-175) fused to the Gal4 activation domain (AD) of pGADT7 (domain or fragment, UniProt Q06588 38-175)
chain: T5 sequence
binding [1]: binds
binding [2]: no binding

B2: YN-ACO4_(38-175) (domain or fragment, UniProt Q06588 38-175)
chain: T5 sequence
binding [3]: binds

B3: ACO4_(38-175)-YC (domain or fragment, UniProt Q06588 38-175)
chain: T5 sequence
binding [4]: binds

B4: RPW8.1-HA (protein, UniProt Q9C5Z7 1-148)
chain: T1 sequence
binding (ACO4-Flag (Arabidopsis)): binds
binding [5]: binds
binding [6]: binds

B5: A4T1 (ACO4 aa 153-254), Y2H prey (domain or fragment, UniProt Q06588 153-254)
chain: PTFGTKVSNYPPCPNPDLVKGLRAHTDAGGIILLFQDDKVSGLQLLKDGEWVDVPPVKHSIVVNLGDQLEVITNGKYKSVEHRVLSQTDGEGRMSIASFYNP
binding [1]: no binding

B6: A4T2 (ACO4 aa 255-323), Y2H prey (domain or fragment, UniProt Q06588 255-323)
chain: GSDSVIFPAPELIGKEAEKEKKENYPRFVFEDYMKLYSAVKFQAKEPRFEAMKAMETTVANNVGPLATA
binding [1]: no binding

B7: ACO1 in the GAL4 activation domain (AD) vector (enzyme, UniProt Q9ZUN4 1-310)
chain: MVLIKEREMEIPVIDFAELDGEKRSKTMSLLDHACDKWGFFMVDNHGIDKELMEKVKKMINSHYEEHLKEKFYQSEMVKALSEGKTSDADWESSFFISHKPTSNICQIPNISEELSKTMDEYVCQLHKFAERLSKLMCENLGLDQEDIMNAFSGPKGPAFGTKVAKYPECPRPELMRGLREHTDAGGIILLLQDDQVPGLEFFKDGKWVPIPPSKNNTIFVNTGDQLEILSNGRYKSVVHRVMTVKHGSRLSIATFYNPAGDAIISPAPKLLYPSGYRFQDYLKLYSTTKFGDKGPRLETMKKMGNADSA
binding [1]: no binding
